From article PMC6641210 come the findings set out here.

Where two headings read alike, the source gives them in different places.

Test in all cases: SPR
(Surface plasmon resonance follows binding to a sensor surface in real time, without labels.)

In test [1] the target is human IgG1 anti-Tissue Factor antibody 25G1 with a kappa light chain (human).
The target of test [2] is chimeric rabbit IgG: variable regions of human 25G1 on rabbit IgG heavy and rabbit kappa (K2) light chain constant regions (human | rabbit (Oryctolagus cuniculus)).
Test [3] concerns the target human IgG1 anti-Tissue Factor antibody 25G1 with a kappa light chain (human). The source holds these as a separate data set.
Test [4] has as its target chimeric rabbit IgG: variable regions of human 25G1 on rabbit IgG heavy and rabbit kappa (K2) light chain constant regions (human | rabbit (Oryctolagus cuniculus)). This is another data set of the same source.

Sequence of chimeric rabbit IgG: variable regions of human 25G1 on rabbit IgG heavy and rabbit kappa (K2) light chain constant regions (human | rabbit (Oryctolagus cuniculus)) (heavy, as listed by the source, chain 1 of 2): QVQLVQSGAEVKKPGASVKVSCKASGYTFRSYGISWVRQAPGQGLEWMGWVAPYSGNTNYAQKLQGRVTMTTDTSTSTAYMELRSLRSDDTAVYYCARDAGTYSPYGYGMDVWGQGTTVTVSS
Sequence of chimeric rabbit IgG: variable regions of human 25G1 on rabbit IgG heavy and rabbit kappa (K2) light chain constant regions (human | rabbit (Oryctolagus cuniculus)) (light, as listed by the source, chain 2 of 2): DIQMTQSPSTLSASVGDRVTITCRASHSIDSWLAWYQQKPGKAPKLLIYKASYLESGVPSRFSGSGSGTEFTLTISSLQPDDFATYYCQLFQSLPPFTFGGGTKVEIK
Sequence of human IgG1 anti-Tissue Factor antibody 25G1 with a kappa light chain (human) (heavy, as listed by the source, chain 1 of 2): as the sequence (heavy, as listed by the source, chain 1 of 2) above
Sequence of human IgG1 anti-Tissue Factor antibody 25G1 with a kappa light chain (human) (light, as listed by the source, chain 2 of 2): as the sequence (light, as listed by the source, chain 2 of 2) above

One may read the koff as the first-order rate constant of dissociation. Lower therefore signals slow dissociation. One may read the kon as a measure of how fast the partners come together. What is called Kd is the free concentration of one partner at which half of the binding sites on the other are occupied at equilibrium, for simple one-to-one binding. A higher Kd goes with weaker binding. Turning to “human FcγRIIIA-V158 (high affinity allele) extracellular domain fragment (letters omitted) (receptor; modification not given)”, the koff in test [1] was determined as 0.22 s⁻¹; in test [2], 0.26 s⁻¹. The kon in test [1] is 1.89e+06 M⁻¹ s⁻¹; in test [2] it was 1.44e+06 M⁻¹ s⁻¹. Further, the Kd turned out to be 181 nM in test [2], 123 nM in test [3] and 172 nM in test [4].
